Measurements from publication PMC7949109, “Trans-2-enoyl-CoA reductase limits Ca^2+ accumulation in the endoplasmic reticulum by inhibiting the Ca^2+ pump SERCA2b” (The Journal of Biological Chemistry, 2021).
These are yes or no findings as the source states them, for the method shown. Binding seen in cells or lysates may run through a third protein. Some entries that bind do so weakly or less than the wild type. For part of these data: Tags and fused reporters may be left off the sequences shown.

Tests used:
GST-TER-C-term (human) = biological target: T1, GST-TER-C-term (human) (UniProt Q9NZ01); assay: pull-down; GST proteins (2.8 nmol; 1.9 nmol in Fig. 3D) immobilised on glutathione Sepharose, incubated with Triton X-100 extracts of HEK293 cells expressing 3xHA-SERCA2b, buffer C with 1 mM DTT and 1% Triton X-100, 4 °C 2 h; blot with anti-HA mAb; also cells treated with 1 uM thapsigargin for 90 min (less pulled down by GST-C-term); only the target purified
T1 sequence: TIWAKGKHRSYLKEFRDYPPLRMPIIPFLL

GST-TER-N-term (human) = biological target: T2, GST-TER-N-term (human) (UniProt Q9NZ01); assay: as above
T2 sequence: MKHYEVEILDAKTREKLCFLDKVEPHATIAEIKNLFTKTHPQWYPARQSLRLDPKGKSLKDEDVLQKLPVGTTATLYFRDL

[1] = biological target: T3, FLAG–TER ΔC (TER mutant lacking the C-terminal region, 1–278aa) (human) (UniProt Q9NZ01); assay: co-IP; 3xHA-SERCA2b and FLAG-tagged proteins co-transfected into HEK293 cells; Triton X-100 extracts, anti-FLAG mAb 4 °C 2 h; blot with anti-HA mAb
T3 sequence: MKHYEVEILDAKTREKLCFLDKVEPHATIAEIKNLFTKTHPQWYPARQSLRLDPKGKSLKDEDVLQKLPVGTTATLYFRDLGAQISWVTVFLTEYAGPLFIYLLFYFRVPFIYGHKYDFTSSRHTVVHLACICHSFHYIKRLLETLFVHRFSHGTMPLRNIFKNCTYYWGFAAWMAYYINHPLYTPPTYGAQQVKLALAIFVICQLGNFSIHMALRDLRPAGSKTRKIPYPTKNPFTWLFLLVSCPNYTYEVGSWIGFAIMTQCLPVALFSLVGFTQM

[2] = biological target: T4, FLAG–TER FL (FLAG-tagged full-length TER), in HEK293 cells (human) (UniProt Q9NZ01); assay: as above
T4 sequence: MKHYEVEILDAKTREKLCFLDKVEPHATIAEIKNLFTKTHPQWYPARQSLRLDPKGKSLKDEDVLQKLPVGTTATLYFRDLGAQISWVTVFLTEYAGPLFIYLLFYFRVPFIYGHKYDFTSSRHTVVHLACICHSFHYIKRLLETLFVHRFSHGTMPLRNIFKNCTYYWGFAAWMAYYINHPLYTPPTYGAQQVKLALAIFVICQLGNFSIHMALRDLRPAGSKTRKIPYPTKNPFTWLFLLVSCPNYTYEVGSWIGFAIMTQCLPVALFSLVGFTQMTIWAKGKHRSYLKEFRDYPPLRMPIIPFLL

[3] = biological target: T5, FLAG–TER ΔN (TER mutant lacking the N-terminal region, 82–308aa) (human) (UniProt Q9NZ01); assay: as above
T5 sequence: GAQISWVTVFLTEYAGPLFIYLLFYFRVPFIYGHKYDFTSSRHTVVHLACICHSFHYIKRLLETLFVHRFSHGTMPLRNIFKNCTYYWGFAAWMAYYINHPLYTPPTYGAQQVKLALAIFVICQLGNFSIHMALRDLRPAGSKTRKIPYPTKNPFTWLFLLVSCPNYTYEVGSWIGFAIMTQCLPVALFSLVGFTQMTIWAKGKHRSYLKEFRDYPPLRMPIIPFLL

[4] = biological target: T6, FLAG–TER-N-term (N-terminal region of TER, 1–81aa) (human) (UniProt Q9NZ01); assay: as above
T6 sequence: T2 sequence

[5] = biological target: T7, Strep-TER (trans-2-enoyl-CoA reductase with an N-terminal Strep-tag) (human) (UniProt Q9NZ01); assay: pull-down; Strep-TER held on Strep-Tactin Sepharose from Triton X-100 extracts of HEK293 cells, Western blotting with anti-SERCA2b mAb; also cells treated with or without 1 uM thapsigargin for 90 min before lysis (less SERCA2b pulled down)
T7 sequence: T4 sequence

[6] = biological target: T8, trans-2-enoyl-CoA reductase (TER), endogenous (human (endogenous in HEK293, primary human keratinocytes, HuH-7)) (UniProt Q9NZ01); assay: co-IP; Triton X-100 extracts of HEK293 cells, buffer C (20 mM Tris HCl pH 7.5, 150 mM NaCl, 2 mM MgCl2, 1 mM CaCl2); anti-TER pAb or normal rabbit IgG, 4 °C 16 h, Protein G Sepharose; blot with anti-SERCA2b mAb
T8 sequence: T4 sequence

[7] = biological target: T8, trans-2-enoyl-CoA reductase (TER), endogenous (human (endogenous in HEK293, primary human keratinocytes, HuH-7)); assay: co-IP; 1% DDM extracts of primary human keratinocytes or HuH-7 cells, buffer C; anti-TER pAb or normal rabbit IgG, 4 °C 16 h, Protein G Sepharose; blot with anti-SERCA2b mAb

binding (GST-TER-C-term (human))	binding [1]	binding [2]	binding [3]	binding [4]	binding [5]	binding [6]	binding [7]	Substance	binding (GST-TER-N-term (human))
binds	binds weakly	binds	binds	no binding				3xHA-SERCA2b (from UniProt P16615-1 1-1042) (enzyme)	no binding (tested: 2.8 nmol of GST-TER-N-term on the beads)
					binds	binds	binds	sarco(endo)plasmic reticulum Ca2+-ATPase 2b (SERCA2b), endogenous (from UniProt P16615-1 1-1042) (enzyme)	
